{"source": "PubChem BioAssay AID624417", "about": "(National Center for Advancing Translational Sciences (NCATS), 2012)", "note": "Out of some 410,000 compounds screened, about 6,400 (1.6%) were called active. This list was built around the results that the source calls inconclusive (neither active nor inactive); the mix of calls is not that of the screen. The call rests on the fitted dose curve; in most records, active means well fitted inhibition curve with a large enough effect; inconclusive means small, poorly fitted or top-dose-only effect; inactive means no such curve, though single readings can be large or run the other way. No potency is given beside an inconclusive call; the fits are too rough."}
{"molecular_target": "Glucagon-like peptide 1 receptor (Homo sapiens) (UniProt P43220)", "sequence (P43220 whole entry, looked up)": "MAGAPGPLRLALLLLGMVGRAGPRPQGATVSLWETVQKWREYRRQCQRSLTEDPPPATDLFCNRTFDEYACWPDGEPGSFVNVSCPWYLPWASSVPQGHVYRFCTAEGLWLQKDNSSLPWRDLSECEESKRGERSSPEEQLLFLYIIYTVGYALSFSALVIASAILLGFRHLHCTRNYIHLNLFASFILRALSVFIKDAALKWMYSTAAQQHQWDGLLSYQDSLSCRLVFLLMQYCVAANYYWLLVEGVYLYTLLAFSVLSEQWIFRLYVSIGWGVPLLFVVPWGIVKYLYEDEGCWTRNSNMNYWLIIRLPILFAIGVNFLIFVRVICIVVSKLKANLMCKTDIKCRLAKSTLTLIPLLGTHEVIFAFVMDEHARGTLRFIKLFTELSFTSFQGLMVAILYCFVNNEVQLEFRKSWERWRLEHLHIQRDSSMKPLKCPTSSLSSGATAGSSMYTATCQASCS", "test": "qHTS of GLP-1 Receptor Inverse Agonists (Inhibition Mode); further: nearly all actives have a fitted effect of over 55% in size; further: potency means the concentration at half of the fitted maximal effect; tags describe the fitted curve by direction and shape; on activity change, negative = inhibition: on the % scale 0 is the no-effect control and ±100 the full control effect", "details": "HEK293 GLP-1R CRE-luciferase, luminescence, 24 h, GLP-1R form is constitutively active; activity change, negative = inhibition: at 38.3 µM (top of the series) unless noted", "outline": "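Cells are plated, allowed 12 hours at 37 deg C, then treated with compounds for 24 hr before luciferase detection reagent is added and luminescence is read after 12 min at room temperature. The HEK293 line carries constitutively active GLP-1R with a cAMP-responsive reporter.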"}
{"compound": "CCOC(=O)C1CCCN(C(=O)c2ccc(-c3ccccc3Cl)o2)C1", "note": "(stereo not drawn)", "Potency": "inconclusive [inhibitor, single point]"}
{"compound": "COc1ccccc1NC(=O)/C=C/c1ccc2c(c1)OCO2", "Potency": "inconclusive [inhibitor, partial curve, poor fit]"}
{"compound": "CC1CCCCC1NCC(=O)Nc1ccccc1C(=O)Nc1ccccc1", "note": "(stereo not drawn)", "Potency": "inconclusive [inhibitor, partial curve]"}
{"compound": "O=C1c2ccccc2C(=O)N1CCC(c1ccc(F)cc1)c1ccco1", "note": "(stereo not drawn)", "Potency": "inconclusive [inhibitor, partial curve]"}
{"compound": "CCOC(=O)C1CCN(Cc2ccc(F)c(Br)c2)CC1", "activity change, negative = inhibition": "inactive: -17.5%"}
{"compound": "CN(CC(=O)Nc1ccc(Cl)c(Cl)c1)Cc1nnc(-c2ccc(F)cc2)o1", "Potency": "inconclusive [inhibitor, partial curve, poor fit]"}
{"compound": "C=Cc1ccc(CN2C(=O)N(c3ccc(C)c(C)c3)S(=O)(=O)c3ccccc32)cc1", "Potency": "inconclusive [inhibitor, partial curve]"}
{"compound": "OC(c1ccc(F)cc1)c1nc(-c2cccc(F)c2)cs1", "note": "(stereo not drawn)", "Potency": "inconclusive [inhibitor, single point]"}
{"compound": "Nc1nc(CCl)nc(N(c2ccccc2)c2ccccc2)n1", "Potency": "inconclusive [inhibitor, partial curve, poor fit]"}
{"compound": "CCOc1ccc(C(NC(=O)CC)c2c(O)ccc3ccccc23)cc1", "note": "(stereo not drawn)", "Potency": "inconclusive [inhibitor, partial curve, poor fit]"}
{"compound": "CCCn1c2ccccc2c2cnn(CC(=O)NCCc3ccc(S(N)(=O)=O)cc3)c(=O)c21", "activity change, negative = inhibition": "inactive: 26.6%"}
{"compound": "CCOC(=O)C1CCN(C(=O)c2ccc3c(c2)NC(=O)/C(=C\\c2ccc(C)cc2)S3)CC1", "Potency": "inconclusive [inhibitor, single point]"}
{"compound": "CN1OC[C@@H]2CN(C(=O)C(C)(C)C)[C@H](c3ccc(-n4ccnc4)cc3)C[C@@H]21", "activity change, negative = inhibition": "inactive: 13.5%"}
{"compound": "C[C@@H](CN1CCC(Cc2ccccc2)CC1)[C@@H](O)c1ccc(O)cc1", "Potency": "inconclusive [inhibitor, full curve, poor fit]"}
{"compound": "COc1ccccc1NC(=O)NC1CCCc2ccccc21", "note": "(stereo not drawn)", "Potency": "inconclusive [inhibitor, single point]"}
{"compound": "CC(Nc1nc(-c2cccnc2)nc2ccccc12)c1ccc(F)cc1", "note": "(stereo not drawn)", "Potency": "inconclusive [inhibitor, partial curve, poor fit]"}
{"compound": "CCN(CC(=O)NCC(=O)Nc1cccc(C)c1C)Cc1ccccc1", "Potency": "inconclusive [inhibitor, full curve]"}
{"compound": "COCCN1C(=O)COc2ccccc2C1C(=O)NC(C)(C)C", "note": "(stereo not drawn)", "activity change, negative = inhibition": "inactive: 18.9%"}
{"compound": "COc1ccc(CN2CCN(CC(O)Cn3c4ccccc4c4ccccc43)CC2)cc1", "note": "(stereo not drawn)", "Potency": "inconclusive [inhibitor, partial curve, poor fit]"}
{"compound": "OCC1(CCCc2ccccc2)CCN(Cc2cc(F)ccc2F)CC1", "Potency": "inconclusive [inhibitor, partial curve, poor fit]"}
{"compound": "Cc1ccc(C)c(S(=O)(=O)NNC(=O)Nc2ccccc2Cl)c1", "Potency": "inconclusive [inhibitor, partial curve, poor fit]"}
{"compound": "Cc1ccc(NC(=O)Cn2cnc3c(oc4ccccc43)c2=O)cc1Cl", "activity change, negative = inhibition": "inactive: 12%"}
{"compound": "C/C(=N\\Nc1nc2ccccc2[nH]1)c1ccc2c(c1)OCCO2", "Potency": "inconclusive [inhibitor, partial curve, poor fit]"}
{"compound": "Cc1ccc(N2C(=O)C(Cl)=C(NCc3ccccc3)C2=O)c(C)c1", "Potency": "inconclusive [inhibitor, single point]"}
{"compound": "Cc1cc(C)c2cccc(NC(=S)NC(=O)c3ccccc3)c2n1", "Potency": "inconclusive [inhibitor, partial curve]"}
{"compound": "Cc1nccn1CC(O)COc1ccc([N+](=O)[O-])cc1", "note": "(stereo not drawn)", "Potency": "inconclusive [inhibitor, partial curve, poor fit]"}
{"compound": "Cc1ccc(-c2nnn(CC(=O)N(CC(=O)NC3CCCCC3)c3ccc(F)c(Cl)c3)n2)o1", "Potency": "inconclusive [inhibitor, partial curve, poor fit]"}
{"compound": "CCOC(=O)C1CCN(C(=O)CS(=O)Cc2nc(-c3ccc(C)cc3)oc2C)CC1", "note": "(stereo not drawn)", "Potency": "inconclusive [inhibitor, partial curve, poor fit]"}
{"compound": "CC(C)(CO)NS(=O)(=O)c1ccc2c(c1)Cc1cc(S(=O)(=O)NC(C)(C)CO)ccc1-2", "activity change, negative = inhibition": "inactive: 56%"}
{"compound": "Cc1cccc(OCCCCN2CCNCC2)c1", "Potency": "inconclusive [inhibitor, partial curve, poor fit]"}
{"compound": "O=C(CSCC(=O)NN=Cc1ccccc1O)NN=Cc1ccccc1O", "Potency": "inconclusive [inhibitor, single point]"}
{"compound": "Cc1ccc(NC(=O)Cc2csc(-c3ccccc3)n2)cc1F", "Potency": "inconclusive [inhibitor, partial curve]"}
{"compound": "CC12COC3(C(=O)Nc4ccccc4F)CC1CCC32C", "note": "(stereo not drawn)", "Potency": "inconclusive [inhibitor, partial curve, poor fit]"}
{"compound": "Cc1sc2ncnc(OCC(=O)N3CCN(S(=O)(=O)c4ccccc4)CC3)c2c1C", "Potency": "inconclusive [inhibitor, single point]"}
{"compound": "CCOc1ccccc1CNC(=O)c1cnn(-c2ccc(C)cc2)c1-n1cccc1", "activity change, negative = inhibition": "inactive: -6.78%"}
{"compound": "CCN1CCN(CCCN(Cc2ccco2)C(=S)Nc2ccc(C)c(Cl)c2)CC1", "Potency": "inconclusive [inhibitor, single point]"}
{"compound": "COc1ccc(OCc2cc(C(=O)N3CCSCC3)no2)c(Cl)c1", "Potency": "inconclusive [inhibitor, single point]"}
{"compound": "COc1ccc(CCNC(=O)C2CCCN(S(=O)(=O)c3ccc(OC)cc3)C2)cc1", "note": "(stereo not drawn)", "Potency": "inconclusive [inhibitor, single point]"}
{"compound": "COc1cccc2c1O/C(=N\\O)C(C(=O)Nc1ccc(C)cc1)C2", "note": "(stereo not drawn)", "Potency": "inconclusive [inhibitor, partial curve]"}
{"compound": "CC(C)=CCC/C(C)=C/CNC(=O)C[C@H]1C[C@H](C(=O)N(C(C)C)C(C)C)[C@@]2(C)c3[nH]c4cc(CCC(=O)N(C)C)ccc4c3CCN2C1=O", "Potency": "inconclusive [inhibitor, single point]"}
{"compound": "CCOC(=O)c1cnc2c(Cl)c(Cl)ccc2c1N1CCN(C)CC1", "Potency": "inconclusive [inhibitor, single point]"}
{"compound": "Cc1cc(/C=N/NC(=O)c2ccncc2)c(C)n1-c1ccccc1", "activity change, negative = inhibition": "inactive: -18.7%"}
{"compound": "CN(CCN1CCc2ccccc2C1)Cc1nc(Cc2ccccc2F)no1", "Potency": "inconclusive [inhibitor, partial curve]"}
{"compound": "O=C(COc1ccc(C(=O)c2ccccc2)cc1)NC1CCCCC1", "activity change, negative = inhibition": "inactive: 3.47%"}
{"compound": "Cc1ccc(C(=O)N(CCc2ccccc2)Cc2ccccc2)cc1S(=O)(=O)N1CCOCC1", "Potency": "active: 10 µM"}
{"compound": "COc1ccc(C(CNC(=O)C(C)Oc2ccc(Br)cc2)N2CCCCC2)cc1", "note": "(stereo not drawn)", "Potency": "inconclusive [inhibitor, partial curve, poor fit]"}
{"compound": "Cc1cc(OCCCC(=O)NCCc2ccccn2)ccc1Cl", "Potency": "inconclusive [inhibitor, partial curve, poor fit]"}
{"compound": "Fc1ccc(NC(=S)N2N=CCC2c2ccccc2)cc1", "note": "(stereo not drawn)", "activity change, negative = inhibition": "inactive: 0%"}
{"compound": "Cc1ccnc(N2C(=O)c3ccccc3C2Nc2ccccc2Cl)c1", "note": "(stereo not drawn)", "Potency": "inconclusive [inhibitor, partial curve, poor fit]"}
{"compound": "Cc1cnc(NC(=O)Nc2ccc(Cl)cc2)s1", "Potency": "inconclusive [inhibitor, partial curve, poor fit]"}
{"compound": "CCc1ccc(NC(=S)NC2CCN(Cc3ccccc3)CC2)cc1", "Potency": "inconclusive [inhibitor, partial curve, poor fit]"}
{"compound": "Cc1ccc(C(=O)OCC(=O)NCCc2ccccc2)cc1C", "Potency": "inconclusive [inhibitor, partial curve]"}
{"compound": "COc1cccc(CNc2nc3cc(-c4ccc(F)cc4)sc3c(=O)n2C)c1", "activity change, negative = inhibition": "inactive: -2.47%"}
{"compound": "c1csc(CNc2nc3ccccc3n2CCN2CCOCC2)c1", "Potency": "inconclusive [inhibitor, partial curve, poor fit]"}
{"compound": "COc1ccc(-c2cc(C(F)(F)F)n3nc(C(=O)O)cc3n2)cc1OC", "activity change, negative = inhibition": "inactive: 34%"}
{"compound": "COc1ccc(C(=O)C(=O)N2CCN(c3ccc(C)cc3)CC2)cc1OC", "activity change, negative = inhibition": "inactive: 13.4%"}
{"compound": "Cc1nn(CCC(=O)Nc2ccc(Cl)cc2)c(C)c1S(=O)(=O)N1CCCCC1", "Potency": "inconclusive [inhibitor, partial curve, poor fit]"}
{"compound": "Cc1cc(-c2ccc(C)c(S(=O)(=O)NCCCN3CCN(c4ccccc4F)CC3)c2)on1", "Potency": "inconclusive [inhibitor, partial curve, poor fit]"}
{"compound": "CCN(c1ccccc1)S(=O)(=O)c1cccc(C(=O)NCC(c2cccs2)N(C)C)c1", "note": "(stereo not drawn)", "Potency": "inconclusive [inhibitor, partial curve, poor fit]"}
{"compound": "CCOc1ccc2c(c1)-c1c(ssc1=S)C(C)(C)N2", "Potency": "inconclusive [inhibitor, single point]"}
{"compound": "CCc1nc2c(OCCC3CCCCC3)cccn2c1N(C=O)Cc1ccccc1", "Potency": "inconclusive [inhibitor, partial curve, poor fit]"}
{"compound": "Cc1ccc(Cn2c(CO)cnc2SCc2ccc(F)cc2)cc1", "Potency": "inconclusive [inhibitor, partial curve, poor fit]"}
{"compound": "CN(CC(=O)Nc1ccc2c(c1)OCCO2)S(=O)(=O)c1ccc(Br)s1", "Potency": "inconclusive [inhibitor, single point]"}
